The record followed here is US20240190987A1, “Engineered EpCam Binding Antibodies” (TigaTX, priority 2021, published 2024).

Common to all, as to format: cell-based, human
One experiment concerns HCT-116 target cells. The experiment is described as follows: TDCC co-culture assay, HCT-116 target cells. Conditions: conventional TCE format, human T-cells. The text has this: Leukapheresis packs were obtained from deidentified healthy adult donors (StemCell Technologies, Vancouver, BC). Peripheral blood mononuclear cells (PBMCs) were first isolated using the EasySep Direct Human PBMC Kit (StemCell Technologies). Human T cells were magnetically isolated from the PBMCs using the EasySep Human T cell Isolation Kit (StemCell Technologies). T cells were cryopreserved in DMEM with 10% FBS and 10% DMSO and thawed the day of experiments.
Co-culture assays were used to assess T-cell activation (CD69 upregulation), cytokine production or T-cell-dependent cellular cytotoxicity (TDCC) of target cells. Flat-bottom 96-well plates were seeded with 5,000 target cells in complete growth media (DMEM+10% FBS+1% penicillin/streptomycin) 16-24 hrs before the assay. Antibody drugs were added in 10 μL growth media and incubated for at least 10 min at 37° C. Indinavir or vehicle control was added in 10 μL growth media. Magnetically isolated human T-cells were thawed, washed, and resuspended in complete growth media, then added to target cells (50,000 T cells per well) in 80 μL growth media for a final assay well volume of 100 μL. The final effector:target (E:T) ratio was 10:1. Assay plates were incubated at 37° C. with 5% CO2 for 66-70 hr depending on the experiment. T-cells were transferred to a U-bottom 384-well plate and spun (600 rcf×5 min). Supernatants were stored at −20° C. for later analysis of cytokines. T-cells were resuspended in CF405M viability dye (0.5 μM, Biotium, Fremont, CA) in PBS for 10 min at 37° C. At the end of viability staining, cells were fixed by adding methanol-free paraformaldehyde (Electron Microscopy Sciences, Hatfield, PA) to a final concentration of 1% for 10 min at room temperature. T-cells were spun (600 rcf×5 min) and supernatant was aspirated. T-cells were stained with FITC-conjugated anti-human CD45 (BioLegend, San Diego, CA) at 1 pg/mL final dilution and PE-conjugated anti-human CD69 (BioLegend, San Diego, CA) at 400 ng/mL final dilution for 30 minutes at room temperature in the dark, then immediately run an IntelliCyt® iQue3 flow cytometer (Sartorius AG, Göttingen, Germany). While T cells were being processed, target cells were incubated with CellTiter-Glo 2.0 (Promega, Madison, WI) for 15 min at room temperature with shaking then read for luciferase light emission on a GloMax Explorer plate reader using default settings. Specific Cytotoxicity (%) was calculated from the relative luminescence unit values (RLU) using the formula: [1−(experimental RLU/vehicle-treated RLU))×100]. The frequency of CD69+ T-cells (%) was calculated as the percentage of CD69-positive events within the CF405M-negative population. Dose-response curves and EC50 values were calculated in GraphPad Prism 9 software (GraphPad Software San Diego, CA).

The test system of a further experiment is CEPO-HB2 target cells. Nature of the experiment: TDCC co-culture assay, CEPO-HB2 (high EpCAM). From the text:
(§1) FIG. 48 depicts co-culture TDCC data for an exemplary T-LITE pair and a conventional TCE on isogenic cell lines with different surface expression of human EpCAM. A panel of isogenic cell lines was created using the Calu-6 human lung cancer cell line as a starting point. Based on literature values for surface expression of EpCAM, Calu-6 expresses 40,926 copies/cell, whereas HCT-116 expresses approximately 100-fold higher levels at 4,753,190 copies/cell (Casaletto et al., PNAS 2019; doi: 10.1073/pnas.1819085116). Human EpCAM was expressed on the Calu-6 background using lentiviral vectors with different strength promoters. […] Relative surface expression of human EpCAM on each cell line was measured by flow cytometry, as well as parental Calu-6 cells and HCT-116 as controls. The conventional TCE control Ab1070 and a T-LITE pair (Ab1093+Ab1060) were assessed in a co-culture assay measuring TDCC of either CEPO-HB2 or CEPO-L2A2 target cells, representing high and low expression of EpCAM, respectively. The assay was performed with 10 nM antibodies (or titrated as indicated), 100 nM indinavir or DMSO vehicle, human T-cells and a variety target cells (as indicated) for 67 hours. Flow cytometry was performed using a PE-conjugated fluorescent anti-human EpCAM antibody (clone 9C4). […]

The next experiment deals with CEPO-L2A2 target cells. Nature of the experiment: TDCC co-culture assay, CEPO-L2A2 (low EpCAM). The following applies: up to 10 nM, 67 hours.
From the text: as §1

B1: Ab1070: conventional TCE containing the M37-H6L2 variant of the M37 clone (antibody)
heavy 1: EVQLVESGGGLVQPGGSLRLSCAASGFTFNTYAMNWVRQAPGKGLEWVARIRSKYNNYATYYADSVKGRFTISRDDSKSILYLQMNSLRAEDTAVYYCVRHGNFGNSYVSWFAYWGQGTLVTVSSGGGGSGGGGSGGGGSDIQVTQSPSSLSASVGDRVTITCRSSTGAVTTSNYANWVQQKPGKAFKGLIGGTNKLAPGVPSRFSGSLSGDDATLTISSLQPEDFATYYCALWYSNLWVFGQGTKLEIKGGGGS[human IgG1 Fc with changes left out]
heavy 2: EVQLVESGGGLVQPGGSLRLSCAASGFTFSNYWMNWVRQAPGKGLEWVAQIRVKSENFATHYADSVKGRFTISRDDSKSTVYLQMNSLRAEDTAVYYCTLYDGFSWGQGTLVTVSSASTKGPSVFPLAPSSKSTSGGTAALGCLVKDYFPEPVTVSWNSGALTSGVHTFPAVLQSSGLYSLSSVVTVPSSSLGTQTYICNVNHKPSNTKVDKKV[human IgG1 Fc with changes left out]
light: DIQMTQSPSSLSASVGDRVTITCSASSSVSSGNFHWYQQKPGKAPKLLIYRTSNLASGVPSRFSGSGSGTDYTLTISSLQPEDFATYYCQQWSGYPYTFGQGTKVEIKRTVAAPSVFIFPPSDEQLKSGTASVVCLLNNFYPREAKVQWKVDNALQSGNSQESVTEQDSKDSTYSLSSTLTLSKADYEKHKVYACEVTHQGLSSPVTKSFNRGEC
modifications: REGION 1..482: note = Ab1070 Knob HC; REGION 1..446: note = Ab1070 Hole HC; REGION 1..215: note = Ab1070 Hole LC
notes: conventional TCE containing the M37-H6L2 variant of the M37 clone
Take B1: the “TDCC of HCT-116 target cells” value with HCT-116 target cells is on record as “killed by TDCC”. For the same molecule, the “killing of CEPO-HB2 line” value with CEPO-HB2 target cells (67 hours) is on record as “potently killed”. The “window between the EC50 for the high- and low-expressing lines” value in the experiment on CEPO-HB2 target cells (CEPO-HB2 vs CEPO-L2A2) is recorded as 47 fold. In the experiment with CEPO-L2A2 target cells, the “killing of CEPO-L2A2 line” value is recorded as “potently killed”.
